# Measured values published in a collection of fitness landscapes (doi:10.1016/j.celrep.2020.107928).
# In all, about 81,000 sequences were measured (“one-hybrid fitness for binding NBS DNA”: median about -0.1, highest 2% from about 0.36 on). The list shows a part of the results.
# B1: Caulobacter ParB omega fusion; a variant is named by its letters at X, in order, B8GW30 (parent)
# chain: MESVVVGEPGMSEGRRGLGRGLSALLGEVDAAPAQAPGEQLGGSREAPIEILQRNPDQPRRTFREEDLEDLSNSIREKGVLQPILVRPSPDTAGEYQIVAGERAWRAAQRAGLKTVPIMVRELDDLAVLEIGIIENVQRADLNVLEEALSYKVLMEKFERTQENIAQTIGKSXSHVANXMRLLXLPDEVQSYLVSGELTAXHARAIAAAADPVALAKQIIEGGLSVRETEALARKAPNLSAGKSKGGRPPRVKDTDTQALESDLSSVLGLDVSIDHRGSTGTLTITYATLEQLDDLCNRLTRGI
# Variants of: B1
# Assay: one-hybrid fitness for binding NBS DNA (the Noc-binding site; scaled: cognate 1, non-cognate 0); higher = stronger binding
# Conditions: with NBS DNA site
# Outline: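 Fitness is the rescaled log change in variant-to-wild-type read ratio, measured by Illumina sequencing of plasmids before and after bacterial one-hybrid selection. The scale puts cognate at 1 and non-cognate at 0. Selection of Caulobacter ParB libraries, four specificity codons randomised, took place in E. coli USO with a HIS3 reporter, site 19 bp from the promoter, over 48 hours at 37°C on M9-minus-histidine with 0.1 mM IPTG and 5 mM 3-AT.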
row,Variant,one-hybrid fitness for binding NBS DNA
1,DRTS,≤ 0.2
2,GLLW,≤ 0.2
3,QQQS,0.428
4,RCCS,0.46
5,ATTS,≤ 0.2
6,RGQS,≤ 0.2
7,FIER,≤ 0.2
8,ECPE,≤ 0.2
9,QWQI,≤ 0.2
10,EGYS,≤ 0.2
11,FTCC,≤ 0.2
12,FSRA,≤ 0.2
13,DRCG,≤ 0.2
14,HKYC,≤ 0.2
15,EFAL,≤ 0.2
16,QAYG,≤ 0.2
17,QFLA,≤ 0.2
18,ERSP,≤ 0.2
19,IHST,≤ 0.2
20,YPQG,≤ 0.2
21,RSVH,≤ 0.2
22,PPGG,≤ 0.2
23,GPWL,≤ 0.2
24,KRPT,0.305

row,Variant,one-hybrid fitness for binding NBS DNA
1,NPWG,≤ 0.2
2,KTPS,≤ 0.2
3,TGSD,≤ 0.2
4,MNLS,≤ 0.2
5,WVDG,≤ 0.2
6,RSPT,≤ 0.2
7,PMMD,≤ 0.2
8,PSMG,≤ 0.2
9,LLDV,≤ 0.2
10,IVKL,≤ 0.2
11,CVRG,≤ 0.2
12,VIMG,≤ 0.2
13,VSAI,≤ 0.2
14,VWMR,≤ 0.2
15,GRPP,≤ 0.2
16,HVTC,≤ 0.2
17,SPAE,≤ 0.2
18,CLTA,≤ 0.2
19,FDVL,≤ 0.2
20,LDMC,≤ 0.2
21,PLYD,≤ 0.2
22,QNDG,≤ 0.2
23,PTNV,≤ 0.2
24,PFGG,≤ 0.2

row,Variant,one-hybrid fitness for binding NBS DNA
1,YYAT,≤ 0.2
2,LNHD,≤ 0.2
3,YCPR,≤ 0.2
4,PRCV,≤ 0.2
5,SLCI,≤ 0.2
6,SELL,≤ 0.2
7,GTMF,≤ 0.2
8,LRLM,≤ 0.2
9,EPRG,≤ 0.2
10,KENS,≤ 0.2
11,LWIT,≤ 0.2
12,HGNT,≤ 0.2
13,DAQQ,≤ 0.2
14,NFGC,≤ 0.2
15,RITW,≤ 0.2
16,VARK,≤ 0.2
17,MAPR,≤ 0.2
18,MLSC,≤ 0.2
19,QRFI,≤ 0.2
20,GPFR,≤ 0.2
21,RMEG,≤ 0.2
22,PHKR,0.22
23,HYTG,≤ 0.2
24,RCNN,≤ 0.2

row,Variant,one-hybrid fitness for binding NBS DNA
1,HTFG,≤ 0.2
2,RMHC,≤ 0.2
3,AYVW,≤ 0.2
4,TNTE,≤ 0.2
5,EAHE,≤ 0.2
6,CNLA,≤ 0.2
7,AQWT,≤ 0.2
8,SLSG,≤ 0.2
9,PGPA,≤ 0.2
10,SGGR,≤ 0.2
11,LNQT,≤ 0.2
12,QKFR,0.435
13,WHGS,≤ 0.2
14,RDCC,≤ 0.2
15,VNDL,≤ 0.2
16,PTSN,≤ 0.2
17,WEHR,≤ 0.2
18,WSWD,≤ 0.2
19,TITK,≤ 0.2
20,MDTS,≤ 0.2
21,YVLC,≤ 0.2
22,VVSG,≤ 0.2
23,DSTW,≤ 0.2
24,TDEP,≤ 0.2

row,Variant,one-hybrid fitness for binding NBS DNA
1,SPTY,≤ 0.2
2,GSHE,≤ 0.2
3,LSWA,≤ 0.2
4,ACIS,≤ 0.2
5,RFEG,≤ 0.2
6,PFTD,≤ 0.2
7,LDSS,≤ 0.2
8,LCLR,≤ 0.2
9,LFKT,≤ 0.2
10,YSPS,≤ 0.2
11,ESES,≤ 0.2
12,EMLV,≤ 0.2
13,DMCT,≤ 0.2
14,ESCV,≤ 0.2
15,YFSG,≤ 0.2
16,GNCN,≤ 0.2
17,PKSY,≤ 0.2
18,SYQA,≤ 0.2
19,YQGM,≤ 0.2
20,IEPT,≤ 0.2
21,IHKP,≤ 0.2
22,SKIT,≤ 0.2
23,WLWC,≤ 0.2
24,RGSM,≤ 0.2

row,Variant,one-hybrid fitness for binding NBS DNA
1,PSIG,≤ 0.2
2,RGAC,≤ 0.2
3,HIPT,≤ 0.2
4,HNPP,≤ 0.2
5,HGQK,≤ 0.2
6,GPPY,≤ 0.2
7,VMLF,≤ 0.2
8,TNKG,≤ 0.2
9,QCHY,0.258
10,SVNA,≤ 0.2
11,HCLI,≤ 0.2
12,RIRH,0.333
13,CSTN,≤ 0.2
14,ANMC,≤ 0.2
15,RCVN,≤ 0.2
16,KMYR,≤ 0.2
17,GRHM,≤ 0.2
18,KCKT,0.212
19,RAFA,≤ 0.2
20,LNDM,≤ 0.2
21,VTVQ,≤ 0.2
22,ETAY,≤ 0.2
23,EIIS,≤ 0.2
24,PANV,≤ 0.2

row,Variant,one-hybrid fitness for binding NBS DNA
1,DTAD,≤ 0.2
2,YSVR,≤ 0.2
3,SSVD,≤ 0.2
4,PWMT,≤ 0.2
5,ENTR,≤ 0.2
6,RNSI,≤ 0.2
7,KILV,≤ 0.2
8,HKCT,≤ 0.2
9,YEVR,≤ 0.2
10,AQAP,≤ 0.2
11,CHKS,≤ 0.2
12,EYVS,≤ 0.2
13,NTWF,≤ 0.2
14,VAQF,≤ 0.2
15,TPVS,0.295
16,HKYG,≤ 0.2
17,RGAY,≤ 0.2
18,RFQS,0.211
19,QYWT,0.378
20,YNCT,≤ 0.2
21,GNQV,≤ 0.2
22,GHDT,≤ 0.2
23,MGHE,≤ 0.2
24,QMQE,≤ 0.2

row,Variant,one-hybrid fitness for binding NBS DNA
1,TSHF,≤ 0.2
2,QIVI,≤ 0.2
3,ADGP,≤ 0.2
4,DWSC,≤ 0.2
5,RQFL,≤ 0.2
6,VPIT,≤ 0.2
7,PQTG,≤ 0.2
8,TAYI,≤ 0.2
9,EGNL,≤ 0.2
10,LWVC,≤ 0.2
11,MEWG,≤ 0.2
12,TFVS,≤ 0.2
13,NVSK,≤ 0.2
14,APYT,≤ 0.2
15,VPLM,≤ 0.2
16,VPQA,≤ 0.2
17,LFSR,≤ 0.2
18,QTTW,≤ 0.2
19,CYMY,≤ 0.2
20,TCTR,≤ 0.2
21,PDEY,≤ 0.2
22,ARRT,0.202
23,QYKH,0.569
24,ARHD,≤ 0.2

row,Variant,one-hybrid fitness for binding NBS DNA
1,IARF,≤ 0.2
2,LINV,≤ 0.2
3,QVCC,≤ 0.2
4,CCAL,≤ 0.2
5,VHKG,≤ 0.2
6,RNVK,≤ 0.2
7,RSFA,≤ 0.2
8,TMKF,≤ 0.2
9,MYHE,≤ 0.2
10,QSPS,≤ 0.2
11,HVRA,≤ 0.2
12,KKAE,≤ 0.2
13,IAYR,≤ 0.2
14,HVMV,≤ 0.2
15,GLSN,≤ 0.2
16,WRPV,≤ 0.2
17,HRDR,≤ 0.2
18,QMLP,≤ 0.2
19,QRWA,0.432
20,SSNH,≤ 0.2
21,DVMY,≤ 0.2
22,GCAG,≤ 0.2
23,VKDF,≤ 0.2
24,RSHA,≤ 0.2

row,Variant,one-hybrid fitness for binding NBS DNA
1,LHRH,≤ 0.2
2,PSYI,≤ 0.2
3,KKAR,0.212
4,DTTT,≤ 0.2
5,RRQY,0.525
6,TIPF,≤ 0.2
7,RMHF,≤ 0.2
8,RIMQ,≤ 0.2
9,AHRW,≤ 0.2
10,QYAM,≤ 0.2
11,SSAF,≤ 0.2
12,QPLM,≤ 0.2
13,GYYS,≤ 0.2
14,YNHF,≤ 0.2
15,HTLA,≤ 0.2
16,DCRK,≤ 0.2
17,MYTN,≤ 0.2
18,MNYL,≤ 0.2
19,LPYK,≤ 0.2
20,LHYC,≤ 0.2
21,QYPV,≤ 0.2
22,PRTK,≤ 0.2
23,LRLY,≤ 0.2
24,YSGR,≤ 0.2

row,Variant,one-hybrid fitness for binding NBS DNA
1,HPDM,≤ 0.2
2,QRSM,0.374
3,QLNW,≤ 0.2
4,QHIN,≤ 0.2
5,PITN,≤ 0.2
6,NKPL,≤ 0.2
7,FLMC,≤ 0.2
8,PSAI,≤ 0.2
9,EVMG,≤ 0.2
10,TDKR,0.212
11,IRHR,0.326
12,RMSR,0.468
13,VAYT,≤ 0.2
14,IPKL,≤ 0.2
15,LGYT,≤ 0.2
16,RPYF,≤ 0.2
17,RRSP,≤ 0.2
18,QKLV,≤ 0.2
19,LEGL,≤ 0.2
20,THSN,≤ 0.2
21,VFLK,≤ 0.2
22,HPTY,≤ 0.2
23,SWHC,≤ 0.2
24,SRST,≤ 0.2

row,Variant,one-hybrid fitness for binding NBS DNA
1,LEYR,≤ 0.2
2,WFAC,≤ 0.2
3,LMTD,≤ 0.2
4,HRMA,≤ 0.2
5,MDQW,≤ 0.2
6,GYQL,≤ 0.2
7,NYDS,≤ 0.2
8,PANK,≤ 0.2
9,AMPY,≤ 0.2
10,FVCG,≤ 0.2
11,RNDA,≤ 0.2
12,QPML,≤ 0.2
13,SPRF,≤ 0.2
14,FHVS,≤ 0.2
15,LIMC,≤ 0.2
16,AECC,≤ 0.2
17,YTTI,≤ 0.2
18,VNAW,≤ 0.2
19,EHMS,≤ 0.2
20,LKRF,≤ 0.2
21,DIKV,≤ 0.2
22,FGRT,≤ 0.2
23,PGGW,≤ 0.2
24,VQMS,≤ 0.2

row,Variant,one-hybrid fitness for binding NBS DNA
1,QSFN,≤ 0.2
2,DHKG,≤ 0.2
3,EPQR,≤ 0.2
4,ESAG,≤ 0.2
5,GHTW,≤ 0.2
6,IRSM,≤ 0.2
7,HIFS,≤ 0.2
8,HMQC,≤ 0.2
9,FSDS,≤ 0.2
10,EFIS,≤ 0.2
11,VTTW,≤ 0.2
12,QFQY,≤ 0.2
13,QYNR,0.599
14,HYSV,≤ 0.2
15,LCDR,≤ 0.2
16,DTWL,≤ 0.2
17,CVSD,≤ 0.2
18,WSYE,≤ 0.2
